From the supplement of paper PMC10037445
The full ranking holds about 2,900 compounds; the median of “IRF Lucia reporter activity, fold change vs agonist alone” is about 0.9, and the highest 2% start at about 2.8. The list shows a part of the results.

Assays:
[1] = test system: RAW-Dual; assay: IRF Lucia reporter activity, fold change vs agonist alone; cytotoxicity flag (confluency mask): not cytotoxic; higher = enhanced IRF activity
How it was run: (§1)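 RAW-Dual macrophages were seeded in DMEM at 50,000 cells/well in 384-well plates, given 50 nL of library stock by pin tool, and given a PRR agonist 1 h later. Plates were held at 37 °C, 5% CO2 for 20 hours, after which supernatant was read for IRF by QuantiLuc luminescence and for NF-κB by QuantiBlue absorbance at 620 nm. Reporter activity is expressed as fold change over wells that received agonist alone. A well was called cytotoxic when IncuCyte confluency fell below 70% of agonist controls in both mask sets.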

[2] = test system: RAW-Dual; assay: IRF Lucia reporter activity, fold change vs agonist alone; higher = enhanced IRF activity; details: agonist: MPLA (TLR4) […]
How it was run: as §1

[3] = test system: RAW-Dual; assay: IRF Lucia reporter activity, fold change vs agonist alone; cytotoxicity flag (confluency mask): cytotoxic (confluency <70% of control); higher = enhanced IRF activity
How it was run: as §1

[4] = agonist: 3'3'-cGAMP (STING) 10 ug/mL
[5] = library stock concentration (final ~1000-fold dilution): 10 mM, cytotoxicity flag (confluency mask): not cytotoxic
[6] = library stock concentration (final ~1000-fold dilution): 10 mM, cytotoxicity flag (confluency mask): cytotoxic (confluency <70% of control)

Cc1cc(NC(=O)c2cccc(NC(=O)/C=C/CN(C)C)c2)ccc1Nc1nccc(-c2cccnc2)n1 (library stock concentration (final ~1000-fold dilution): 10 mM)
IRF Lucia reporter activity [1, 4]: 0.0822
IRF Lucia reporter activity ([1]; agonist: LPS (TLR4) 0.1 ug/mL): 0.143

Cc1cc(NC(=O)c2cccc(NC(=O)/C=C/CN(C)C)c2)ccc1Nc1nccc(-c2cccnc2)n1
IRF Lucia reporter activity [2, 5]: 0.264

CCOc1cc2ncc(C#N)c(Nc3ccc(OCc4ccccn4)c(Cl)c3)c2cc1NC(=O)/C=C/CN(C)C
IRF Lucia reporter activity ([2]; library stock concentration (final ~1000-fold dilution): 2 mM, cytotoxicity flag (confluency mask): not cytotoxic): 0.922

CCOc1cc2ncc(C#N)c(Nc3ccc(OCc4ccccn4)c(Cl)c3)c2cc1NC(=O)/C=C/CN(C)C (library stock concentration (final ~1000-fold dilution): 2 mM)
IRF Lucia reporter activity [1, 4]: 0.302
IRF Lucia reporter activity ([1]; agonist: LPS (TLR4) 0.1 ug/mL): 0.0254

Oc1cc(CNC(=S)/C=C/c2cc(O)c(O)c(Br)c2)cc(O)c1O (library stock concentration (final ~1000-fold dilution): 10 mM)
IRF Lucia reporter activity [1, 4]: 0.312
IRF Lucia reporter activity ([1]; agonist: LPS (TLR4) 0.1 ug/mL): 4.35

COc1cc(OC)c(/C=C2/C(=O)Nc3ccccc32)c(OC)c1 (library stock concentration (final ~1000-fold dilution): 10 mM)
IRF Lucia reporter activity [1, 4]: 0.185
IRF Lucia reporter activity ([1]; agonist: LPS (TLR4) 0.1 ug/mL): 1.39

CC(C)(C)NCC(O)COc1nsnc1N1CCOCC1.O=C(O)/C=C\C(=O)O (configuration not stated) (library stock concentration (final ~1000-fold dilution): 10 mM)
IRF Lucia reporter activity [1, 4]: 1.04
IRF Lucia reporter activity ([1]; agonist: LPS (TLR4) 0.1 ug/mL): 0.977

CC(C)(C)NCC(O)COc1nsnc1N1CCOCC1.O=C(O)/C=C\C(=O)O (configuration not stated)
IRF Lucia reporter activity [2, 5]: 1.01

O=C(NC(NC(=S)Nc1ccc(F)c([N+](=O)[O-])c1)C(Cl)(Cl)Cl)C(c1ccccc1)c1ccccc1 (configuration not stated) (library stock concentration (final ~1000-fold dilution): 10 mM)
IRF Lucia reporter activity [3, 4]: 0.0204
IRF Lucia reporter activity ([3]; agonist: LPS (TLR4) 0.1 ug/mL): 0.154

O=C(NC(NC(=S)Nc1ccc(F)c([N+](=O)[O-])c1)C(Cl)(Cl)Cl)C(c1ccccc1)c1ccccc1 (configuration not stated)
IRF Lucia reporter activity [2, 6]: 0.22

CC1OC(OC2C(Oc3cc(O)c4c(c3)OC(c3ccc(O)cc3)CC4=O)OC(CO)C(O)C2O)C(O)C(O)C1O (configuration not stated) (library stock concentration (final ~1000-fold dilution): 10 mM)
IRF Lucia reporter activity [1, 4]: 1.03
IRF Lucia reporter activity ([1]; agonist: LPS (TLR4) 0.1 ug/mL): 0.903

CC1OC(OC2C(Oc3cc(O)c4c(c3)OC(c3ccc(O)cc3)CC4=O)OC(CO)C(O)C2O)C(O)C(O)C1O (configuration not stated)
IRF Lucia reporter activity [2, 5]: 1.04

COC1=C2CC(C)CC(OC)C(O)C(C)/C=C(\C)C(OC(N)=O)C(OC)/C=C/C=C(\C)C(=O)NC(=CC1=O)C2=O (configuration not stated) (library stock concentration (final ~1000-fold dilution): 10 mM)
IRF Lucia reporter activity [3, 4]: 0.309
IRF Lucia reporter activity ([3]; agonist: LPS (TLR4) 0.1 ug/mL): 0.0119

COC1=C2CC(C)CC(OC)C(O)C(C)/C=C(\C)C(OC(N)=O)C(OC)/C=C/C=C(\C)C(=O)NC(=CC1=O)C2=O (configuration not stated)
IRF Lucia reporter activity [2, 6]: 0.507

O=C1Nc2cc(Br)ccc2/C1=C1/Nc2ccccc2/C1=N\O
IRF Lucia reporter activity [2, 6]: 0.0228

O=C1Nc2cc(Br)ccc2/C1=C1/Nc2ccccc2/C1=N\O (library stock concentration (final ~1000-fold dilution): 10 mM)
IRF Lucia reporter activity [3, 4]: 0.0195
IRF Lucia reporter activity ([3]; agonist: LPS (TLR4) 0.1 ug/mL): 0.0144

Cn1cc(C2=C(c3ccc(Cl)cc3Cl)C(=O)NC2=O)c2ccccc21
IRF Lucia reporter activity [2, 5]: 0.641

Cn1cc(C2=C(c3ccc(Cl)cc3Cl)C(=O)NC2=O)c2ccccc21 (library stock concentration (final ~1000-fold dilution): 10 mM)
IRF Lucia reporter activity [1, 4]: 0.971
IRF Lucia reporter activity ([1]; agonist: LPS (TLR4) 0.1 ug/mL): 0.887

Cc1ccc(-c2n[nH]c3c2C(c2cccc(O)c2)N(c2ccc(C(=O)O)cc2)C3=O)cc1 (configuration not stated) (library stock concentration (final ~1000-fold dilution): 10 mM)
IRF Lucia reporter activity [1, 4]: 0.964
IRF Lucia reporter activity ([1]; agonist: LPS (TLR4) 0.1 ug/mL): 0.947

Cc1nn(CC(F)(F)F)cc1Nc1ncc(Br)c(NCc2ccc(S(N)(=O)=O)cc2)n1 (library stock concentration (final ~1000-fold dilution): 10 mM)
IRF Lucia reporter activity [1, 4]: 0.0135
IRF Lucia reporter activity ([1]; agonist: LPS (TLR4) 0.1 ug/mL): 0.0166

Cc1nc(Nc2ncc(C(=O)Nc3c(C)cccc3Cl)s2)cc(N2CCN(CCO)CC2)n1.O (library stock concentration (final ~1000-fold dilution): 10 mM)
IRF Lucia reporter activity [1, 4]: 0.0381
IRF Lucia reporter activity ([1]; agonist: LPS (TLR4) 0.1 ug/mL): 0.852

Cc1ccc(C(=O)O)c(O)c1 (library stock concentration (final ~1000-fold dilution): 10 mM)
IRF Lucia reporter activity [1, 4]: 0.982
IRF Lucia reporter activity ([1]; agonist: LPS (TLR4) 0.1 ug/mL): 1.43

Cc1ccc(C(=O)O)c(O)c1
IRF Lucia reporter activity [2, 5]: 1.02

CCOC(=O)NCCCC(=O)NCCc1ccccc1 (library stock concentration (final ~1000-fold dilution): 10 mM)
IRF Lucia reporter activity [1, 4]: 0.764
IRF Lucia reporter activity ([1]; agonist: LPS (TLR4) 0.1 ug/mL): 0.892

Cc1cccc(C)c1OCC(=O)NC(Cc1ccccc1)C(O)CC(Cc1ccccc1)NC(=O)C(C(C)C)N1CCCNC1=O (configuration not stated) (library stock concentration (final ~1000-fold dilution): 10 mM)
IRF Lucia reporter activity [1, 4]: 0.326
IRF Lucia reporter activity ([1]; agonist: LPS (TLR4) 0.1 ug/mL): 1.52

Cc1cccc(C)c1OCC(=O)NC(Cc1ccccc1)C(O)CC(Cc1ccccc1)NC(=O)C(C(C)C)N1CCCNC1=O (configuration not stated)
IRF Lucia reporter activity [2, 5]: 0.854
